# The list shows a part of the results.
# Assays:
# Experiment in all cases: glycan array binding signal (z-score within array); higher = stronger binding
# Conditions in all cases: glycan notation: IUPAC condensed, linker removed
# [1] = molecular target: GlcNAc(b1-3)Gal(b1-4)GlcNAc(b1-3)Gal(b1-4)GlcNAc(b1-3)GalNAc
# Summary of the method: (§1)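 Glycan array data were curated from 3228 arrays in the Consortium for Functional Glycomics database and kept only where the protein sequence was available. Glycan names were converted to IUPAC-condensed notation, and columns mapping to the same glycan were averaged. The binding signal is a within-array Z-score, averaged across arrays of the same protein sequence at different concentrations or buffers and across linkers. Negative Z-scores can be read as non-binding.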
# [2] = molecular target: GlcNAc(b1-3)Gal(b1-4)GlcNAc(b1-3)GalNAc
# Summary of the method: as §1
# [3] = molecular target: GlcNAc(b1-3)Gal(b1-4)GlcNAc(b1-3)[GlcNAc(b1-3)Gal(b1-4)GlcNAc(b1-3)]GalNAc
# Summary of the method: as §1
# [4] = molecular target: GlcNAc(b1-3)Gal(b1-4)GlcNAc(b1-6)[Gal(b1-3)]GalNAc
# Summary of the method: as §1
# [5] = molecular target: GlcNAc(b1-3)Gal(b1-4)GlcNAc(b1-6)[GlcNAc(b1-3)Gal(b1-3)]GalNAc
# Summary of the method: as §1
# [6] = molecular target: GlcNAc(b1-3)Gal(b1-4)GlcNAc(b1-6)[GlcNAc(b1-3)]Gal(b1-4)GlcNAc
# Summary of the method: as §1
# [7] = molecular target: GlcNAc(b1-3)GalNAc
# Summary of the method: as §1
# [8] = molecular target: GlcNAc(b1-3)Man
# Summary of the method: as §1
# [9] = molecular target: GlcNAc(b1-3)[GlcNAc(b1-4)][GlcNAc(b1-6)]GlcNAc
# Summary of the method: as §1
# [10] = molecular target: GlcNAc(b1-3)[GlcNAc(b1-6)]Gal(b1-4)GlcNAc
# Summary of the method: as §1
# [11] = molecular target: GlcNAc(b1-3)[GlcNAc(b1-6)]GalNAc
# Summary of the method: as §1
# [12] = molecular target: GlcNAc(b1-4)Gal(b1-4)GlcNAc
# Summary of the method: as §1
# [13] = molecular target: GlcNAc(b1-4)GlcNAc
# Summary of the method: as §1
# [14] = molecular target: GlcNAc(b1-4)GlcNAc(b1-4)GlcNAc
# Summary of the method: as §1
# [15] = molecular target: GlcNAc(b1-4)GlcNAc(b1-4)GlcNAc(b1-4)GlcNAc(b1-4)GlcNAc
# Summary of the method: as §1
# [16] = molecular target: GlcNAc(b1-4)GlcNAc(b1-4)GlcNAc(b1-4)GlcNAc(b1-4)GlcNAc(b1-4)GlcNAc
# Summary of the method: as §1
# [17] = molecular target: GlcNAc(b1-4)[GlcNAc(b1-6)]GalNAc
# Summary of the method: as §1
# [18] = molecular target: GlcNAc(b1-6)Gal(b1-4)GlcNAc
# Summary of the method: as §1
# [19] = molecular target: GlcNAc(b1-6)GalNAc
# Summary of the method: as §1
# [20] = molecular target: GlcNAc6S(b1-3)Gal(b1-4)GlcNAc
# Summary of the method: as §1
# [21] = molecular target: Kdn(a2-3)Gal(b1-3)GalNAc
# Summary of the method: as §1
# [22] = molecular target: Kdn(a2-3)Gal(b1-3)GlcNAc
# Summary of the method: as §1
# [23] = molecular target: Kdn(a2-3)Gal(b1-4)Glc
# Summary of the method: as §1
# [24] = molecular target: Kdn(a2-3)Gal(b1-4)GlcNAc
# Summary of the method: as §1
# [25] = molecular target: Kdn(a2-3)Gal(b1-4)[Fuc(a1-3)]GlcNAc
# Summary of the method: as §1
# [26] = molecular target: Kdn(a2-6)Gal(b1-4)GlcNAc
# Summary of the method: as §1
# [27] = molecular target: Man(a1-2)Man(a1-2)Man(a1-3)Man
# Summary of the method: as §1
# [28] = molecular target: Man(a1-2)Man(a1-2)Man(a1-6)[Man(a1-3)]Man
# Summary of the method: as §1
# [29] = molecular target: Man(a1-2)Man(a1-3)Man
# Summary of the method: as §1
# [30] = molecular target: Man(a1-2)Man(a1-3)[Man(a1-2)Man(a1-6)]Man
# Summary of the method: as §1
# [31] = molecular target: Man(a1-2)Man(a1-3)[Man(a1-2)Man(a1-6)]Man(a1-6)[Man(a1-2)Man(a1-2)Man(a1-3)]Man
# Summary of the method: as §1
# [32] = molecular target: Man(a1-2)Man(a1-3)[Man(a1-2)Man(a1-6)]Man(a1-6)[Man(a1-2)Man(a1-2)Man(a1-3)]Man(b1-4)GlcNAc(b1-4)GlcNAc
# Summary of the method: as §1
# [33] = molecular target: Man(a1-2)Man(a1-3)[Man(a1-6)]Man(a1-6)[Man(a1-2)Man(a1-3)]Man(b1-4)GlcNAc(b1-4)GlcNAc
# Summary of the method: as §1
# [34] = molecular target: Man(a1-2)Man(a1-6)[Man(a1-3)]Man(a1-6)[Man(a1-2)Man(a1-2)Man(a1-3)]Man
# Summary of the method: as §1
# [35] = molecular target: Man(a1-2)Man(a1-6)[Man(a1-3)]Man(a1-6)[Man(a1-2)Man(a1-2)Man(a1-3)]Man(b1-4)GlcNAc(b1-4)GlcNAc
# Summary of the method: as §1
# [36] = molecular target: Man(a1-3)[Man(a1-6)]Man
# Summary of the method: as §1
# [37] = molecular target: Man(a1-3)[Man(a1-6)]Man(a1-6)[Man(a1-2)Man(a1-3)]Man(b1-4)GlcNAc(b1-4)GlcNAc
# Summary of the method: as §1
binder,measurement,setting,value
B725 (Bifidobacterium sp) (protein) MNNTTRAVIATAAIGALLIPLAGCGNTTTSSGKTELTVWSWDASIDRAAKSFMKANPDITVKVSNVGSTEETYTALNNAAQAGSGLPDVTLIEYLAIPQFVHSDTLMDLSKVYNTAKLKDTFTPGTWNSVNINGGLYAMPADSGPMAYFYDKDVFDKAGISEPPTTWDEFYEDAKKIRATGSYITSDSGDAGLFNAMMWAMGGHAYKLNDDKLTINIAKDKGAQRFMDLWQKMRDEDLIDVHTKTWTDDWMKSLGDGSIASLISGAWMANNLLQGVPQATGKFRVALLPTIDGTPINGEYGGSGLAITKKIPDGKLDAAKKFVEYVTTNDEGIDARVSNGSFPATTKTLNQKDFLAKTTLRNTDGSDNEFFGGQKYNEIFSQAAKDVTGKWEFLPFEPYARSVYNDNMGSFFAGKTSFRTAADNWQKALKDYAKDQGFTVQ,glycan array binding signal (z-score),[1],-0.19
same,glycan array binding signal (z-score),[2],-0.199
same,glycan array binding signal (z-score),[3],-0.204
same,glycan array binding signal (z-score),[4],-0.172
same,glycan array binding signal (z-score),[5],-0.208
same,glycan array binding signal (z-score),[6],-0.204
same,glycan array binding signal (z-score),[7],-0.221
same,glycan array binding signal (z-score),[8],-0.204
same,glycan array binding signal (z-score),[9],-0.212
same,glycan array binding signal (z-score),[10],-0.22
same,glycan array binding signal (z-score),[11],-0.231
same,glycan array binding signal (z-score),[12],-0.222
same,glycan array binding signal (z-score),[13],-0.209
same,glycan array binding signal (z-score),[14],-0.22
same,glycan array binding signal (z-score),[15],-0.213
same,glycan array binding signal (z-score),[16],-0.231
same,glycan array binding signal (z-score),[17],-0.219
same,glycan array binding signal (z-score),[18],-0.227
same,glycan array binding signal (z-score),[19],-0.226
same,glycan array binding signal (z-score),[20],-0.087
same,glycan array binding signal (z-score),[21],-0.219
same,glycan array binding signal (z-score),[22],-0.213
same,glycan array binding signal (z-score),[23],-0.211
same,glycan array binding signal (z-score),[24],-0.23
same,glycan array binding signal (z-score),[25],-0.217
same,glycan array binding signal (z-score),[26],-0.147
same,glycan array binding signal (z-score),[27],-0.192
same,glycan array binding signal (z-score),[28],-0.215
same,glycan array binding signal (z-score),[29],-0.229
same,glycan array binding signal (z-score),[30],-0.221
same,glycan array binding signal (z-score),[31],-0.228
same,glycan array binding signal (z-score),[32],-0.236
same,glycan array binding signal (z-score),[33],-0.237
same,glycan array binding signal (z-score),[34],-0.217
same,glycan array binding signal (z-score),[35],-0.22
same,glycan array binding signal (z-score),[36],-0.224
same,glycan array binding signal (z-score),[37],-0.226
